# The campaign covered roughly 48,000 compounds. About 450 (0.94%) were called active. Inconclusive results (about 19%) are left out. Calls come from the whole dose curve; as a rule, active = well fitted inhibition curve with a large enough effect; inconclusive = small, poorly fitted or top-dose-only effect; inactive = no such curve, though single readings can be large or run the other way. Some of the results follow.
# Experiment: Primary qHTS for Identification of Small Molecule Inhibitors of Huntingtin Promoter Activity; note: nearly all actives have a fitted effect of over 50% in size
# Conditions: HEK293 HTT promoter firefly luciferase reporter (activity 0% = vehicle and -100% = no light), 24 h; series mostly up to 57.5 µM; activity change, negative = inhibition: at the top concentration
# How it was run: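 Firefly luciferase signal from promoter-reporter HEK293 cells was scaled between vehicle (0%) and zero RLU (-100%). Compounds were tested at final concentrations of up to 57.5 uM over 24 h at 37 degrees C. PTC124 at 50 uM final served as control inhibitor.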
# Potency is the fitted concentration of half-maximal effect.
Compound,"activity change, negative = inhibition",Potency
COc1ccccc1NC(=O)CCn1cnc2ccccc2c1=O,inactive: 13%,
Cc1ccc2nc(-c3ccc(Cl)c(NC(=O)c4cccnc4)c3)oc2c1,inactive: 2.2%,
CC(=O)N1CCCc2cc(S(=O)(=O)N3CCCCC3)ccc21,inactive: -6.37%,
Oc1ccc(Cl)c2cccnc12,inactive: -8.75%,
CN(C(=O)c1cc2c(=O)oc3ccccc3c2s1)c1ccc(F)cc1,inactive: -6.53%,
CCCCn1c2ccc(F)cc2c2nnc(SCCN3CCCCC3)nc21,inactive: -4.57%,
Cc1ccc(OCC(=O)NCC(=O)OCc2cc(=O)n3nc(C)sc3n2)cc1,inactive: 0.71%,
CCOC(=O)C1CCN(S(=O)(=O)c2cc(-c3onc(C)c3C)ccc2OC)CC1,inactive: -28.3%,
COc1ccc(CCNC(=O)CSc2ncc3c(n2)-c2cc(Cl)ccc2N(Cc2ccccc2)S3(=O)=O)cc1OC,inactive: -18.4%,
Cc1ccc(CNC(=O)c2nc(SCc3ccc(C)cc3)ncc2Cl)cc1,inactive: -7.55%,
COc1ccc(CNC(=O)c2ccc3c(c2)N(Cc2cccc(Cl)c2)C(=O)c2ccccc2S3)c(OC)c1,inactive: -20.1%,
COCCCNC(=O)CCn1c(=O)c2ccccc2n(CC(=O)Nc2c(C)cc(C)cc2C)c1=O,inactive: -2.72%,
Cc1ccc(-n2c(=O)c3cccnc3n2CC(=O)Nc2cccc(C)c2C)cc1,inactive: -5.21%,
Cc1cccn2c(Nc3ccccc3)c(-c3ccc(N4CCOCC4)cc3)nc12,inactive: 25.7%,
CC(C)c1ccc(OC(=O)c2cc(-c3ccc4c(c3)OCCO4)on2)cc1,inactive: -12.7%,
CCC(=O)c1ccc(O)cc1,inactive: -0.438%,
CCOc1ccc(C(=O)Nc2nnc(SCc3cc(=O)c4cc(C)ccc4[nH]3)s2)cc1,inactive: 16.3%,
COc1cccc2sc(N(Cc3cccnc3)C(=O)COc3ccccc3)nc12,inactive: -26.7%,
Cc1nn(-c2ccccc2)c(OC(=O)c2ccccc2F)c1S(=O)(=O)c1ccccc1,inactive: 0.18%,
COc1cccc(N2CCN(C(=O)c3cccc(NC(=O)c4nsc5ccccc45)c3)CC2)c1,inactive: -38.8%,
Cc1ccc(C)c(NC(=O)CSc2nc(=O)n(CCN(C)C)c3c2CCC3)c1,inactive: -2.07%,

Compound,"activity change, negative = inhibition",Potency
COc1cc(CN(C(=O)c2ccccc2[N+](=O)[O-])c2ccccn2)cc(OC)c1OC,inactive: -13.9%,
Cc1sc2c(c1C)c(=O)n(CCc1ccccc1)c(=O)n2Cc1ccccc1Cl,inactive: -4.01%,
CCn1c(=O)c2cc(C(=O)N3CCN(c4cccc(Cl)c4)CC3)sc2c2ccccc21,inactive: -4.89%,
CC1CCN(S(=O)(=O)c2ccc3c(c2)N(CC(=O)NCCCN2CCCCC2C)C(=O)CS3)CC1 (stereo not drawn),inactive: -13%,
CCN(CC)S(=O)(=O)c1ccc2c(c1)nc(CN(C)C(=O)c1cccc(Cl)c1)n2C,inactive: -25.8%,
COc1ccc(CCNC(=O)C2=C(C)C(=O)OC23CCCCC3)c(OC)c1OC,inactive: -16.5%,
COc1ccc(OC)c(CNC(=O)C2CCN(S(=O)(=O)c3cn(C)cn3)CC2)c1,inactive: -3.89%,
COc1cc(Cl)c(C)cc1NC(=O)c1cc(CN2CCOCC2)on1,inactive: 1.68%,
CCc1ccc(NC(=O)CCS(=O)(=O)c2ccc3c(c2)CCN3C(C)=O)cc1,inactive: -26.3%,
Cc1cc(NC(=O)c2ccc3c(c2)N(Cc2cccc(Cl)c2)C(=O)c2ccccc2S3=O)ccc1Br (stereo not drawn),inactive: -10%,
CCc1ccccc1NC(=O)Nc1cc(C(=O)NCc2ccc(C(C)C)cc2)ccc1N1CCCC1,inactive: -7.08%,
Cc1ccc(S(=O)(=O)c2cn(Cc3ccccc3F)c3cc4c(cc3c2=O)OCO4)cc1,inactive: -16%,
CC1CCCN(Cc2c(O)ccc3c(=O)c(Oc4ccccc4Cl)c(C(F)(F)F)oc23)C1 (stereo not drawn),inactive: -21.1%,
Cc1ccc(SCC(=O)Nc2ccc3oc(-c4ccc(F)cc4)nc3c2)cc1,inactive: 70.2%,
COc1ccc(C(=O)NCc2nnc(SCC(=O)Nc3ccc(C)cc3)n2-c2ccccc2)cc1,inactive: -1.84%,
CCc1ccc(CNC(=O)c2ccc(NC(=O)N3CCSc4ncccc43)cc2)cc1,inactive: -26.7%,
CCc1nc2nc(C)cc(Nc3cc(Cl)ccc3OC)n2n1,inactive: 1.36%,
CCOc1ccc(CNC(=O)CCc2c(C)nn(-c3ccc(N4CCOCC4)nn3)c2C)cc1,inactive: -14.3%,
CC(C)NC(=O)Cn1c(=O)nc(-c2ccccc2)c2ccccc21,inactive: -0.664%,
CCOc1ccc(CCNC(=O)c2ccc(C)c(-n3cnc4cccnc43)c2)cc1,inactive: -10.3%,
Cc1cccc(N(C)C(=O)CS(=O)(=O)c2cccc3nsnc23)c1,inactive: -5.69%,

Compound,"activity change, negative = inhibition",Potency
Cc1ccc(C(C)C)c(OCc2ccc(C(=O)Nc3ccc(S(N)(=O)=O)cc3C)o2)c1,inactive: -33.9%,
COc1cccc(CNC(=O)c2ccc3c(Cl)c4c(nc3c2)CCCC4)c1,inactive: -3.76%,
CCOc1ccc(Nc2cc(C)c(C#N)c3nc4ccccc4n23)cc1,inactive: -1.24%,
CCCCN(CCCC)C(C(N)=O)c1ccc(OC)cc1 (stereo not drawn),inactive: 5.22%,
O=C(OCc1ccco1)c1ccc2c(c1)N(Cc1ccc([N+](=O)[O-])cc1)C(=O)c1ccccc1S2,inactive: -30%,
Cc1nc(-n2nc(C)c(CCC(C)C)c2C)sc1C(=O)Nc1cccc(Cl)c1C,inactive: 1.5%,
O=C(CN1C(=O)COc2ccc(S(=O)(=O)N3CCCC3)cc21)NCCc1ccc(Cl)cc1,inactive: -25.5%,
CCOc1ccc2nc(N3CCN(C(=O)C(C)C)CC3)sc2c1,inactive: -11.5%,
COc1cc(OC)c(C(=O)CCCN2CCCC2)c(OC)c1,inactive,
COc1ccc2oc(=O)cc(CN3CCN(C(=O)c4ccccc4Br)CC3)c2c1,inactive: -19.1%,
Cn1nnnc1SCCCNCc1ccc(-c2cccc(Cl)c2)o1,inactive: -3.1%,
COc1ccc(NC(=O)CSc2nnc(-c3nonc3NC(C)=O)n2C)cc1Cl,inactive: -15.4%,
Cc1ccc(-n2ccnc(NCCc3ccccc3)c2=O)cc1C,inactive: 12.1%,
CCOC(=O)c1c(C)[nH]c(C)c1S(=O)(=O)N1CCCC(C(=O)Nc2ccc(OC)c(OC)c2)C1 (stereo not drawn),inactive: -0.786%,
O=c1cc2nc(-c3ccccc3F)nc(SCc3ccc(Br)cc3)n2[nH]1,inactive: -10.1%,
Cc1ccccc1-n1c2nc(=O)[nH]c(=O)c-2cc2c(Cl)cccc21,inactive: 4.89%,
COC(=O)c1cc(C)nc2c1c(=O)nc(SCc1cccc(C(F)(F)F)c1)n2C1CC1,inactive: -15%,
CCN(CC)CCCNC(=O)C(C)n1nc(C)n2c(cc3occc32)c1=O (stereo not drawn),inactive: -15.9%,
Cc1c(Cl)cccc1NC(=O)CCn1cnnn1,inactive: -6.57%,
O=C(C1CCC(CNS(=O)(=O)c2cccs2)CC1)N1CCN(c2ccc(Cl)cc2)CC1 (stereo not drawn),,active: 3.98 µM
COC(=O)c1ccccc1NC(=O)CN(c1ccc(Cl)cc1)S(=O)(=O)c1ccc(OC)cc1,inactive: -15.4%,
